Measured values as given in the supplement of paper PMC3334620.
In all, about 33,000 sequences were measured (“E-score (-0.5 to 0.5)”: median about -0.035, highest 2% from about 0.35 on). This is one part of the list.

What follows are sequences tested against T1, Pdr3 (UniProt P33200) (assay: PBM E-score (8-mer binding enrichment) (E-score (-0.5 to 0.5)); higher = stronger / more preferred TF binding; most listed sequences are background and not binding sites). Details: protein concentration: 200 nM; construct: GST-full length.
T1 sequence: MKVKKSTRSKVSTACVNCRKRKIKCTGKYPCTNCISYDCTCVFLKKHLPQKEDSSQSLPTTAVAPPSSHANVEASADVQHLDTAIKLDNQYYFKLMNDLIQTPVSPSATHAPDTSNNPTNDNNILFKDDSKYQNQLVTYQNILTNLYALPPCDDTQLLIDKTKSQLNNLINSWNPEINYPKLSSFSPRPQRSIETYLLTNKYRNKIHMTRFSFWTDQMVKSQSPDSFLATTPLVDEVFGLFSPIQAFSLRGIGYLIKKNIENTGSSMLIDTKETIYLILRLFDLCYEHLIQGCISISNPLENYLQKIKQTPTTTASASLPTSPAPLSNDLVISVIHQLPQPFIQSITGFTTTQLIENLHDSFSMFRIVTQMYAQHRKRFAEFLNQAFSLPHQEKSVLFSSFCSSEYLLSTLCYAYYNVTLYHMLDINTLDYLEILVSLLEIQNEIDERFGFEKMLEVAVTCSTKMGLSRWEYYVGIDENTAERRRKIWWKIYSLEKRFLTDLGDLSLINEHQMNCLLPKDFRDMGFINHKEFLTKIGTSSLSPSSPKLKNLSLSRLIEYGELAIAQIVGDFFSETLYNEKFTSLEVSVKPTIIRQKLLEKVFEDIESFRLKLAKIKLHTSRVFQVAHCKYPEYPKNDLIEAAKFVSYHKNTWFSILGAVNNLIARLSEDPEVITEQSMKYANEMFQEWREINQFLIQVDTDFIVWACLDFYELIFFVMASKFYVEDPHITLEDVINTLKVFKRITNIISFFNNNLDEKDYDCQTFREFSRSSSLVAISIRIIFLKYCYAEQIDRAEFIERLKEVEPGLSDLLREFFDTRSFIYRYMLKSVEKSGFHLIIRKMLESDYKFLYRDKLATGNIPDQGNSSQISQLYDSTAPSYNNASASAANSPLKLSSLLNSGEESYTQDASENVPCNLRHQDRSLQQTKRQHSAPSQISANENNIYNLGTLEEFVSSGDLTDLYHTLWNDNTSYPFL
In short: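 Universal all-10-mer Agilent arrays, fresh or stripped once, were converted to double-stranded form by primer extension. GST-tagged yeast transcription factors from PURExpress in vitro transcription/translation, full-length or DNA-binding domain only, were applied at about 100-200 nM and detected with fluorescent anti-GST. After masliner normalisation, the Universal PBM Analysis Suite scored each ungapped eight-base word together with its reverse complement by E-score.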
In the case of GCATTGAA, the “PBM E-score” value is reported as 0.0593.
In the case of AAACTGAT, the “PBM E-score” value is reported as 0.0335.
For GTGCATGA, the “PBM E-score” value was -0.0649.
In the case of ACCATAGA, the “PBM E-score” value is reported as -0.00346.
CGTCGATC was tested, and the “PBM E-score” value was 0.126.
With CTCATCGC the “PBM E-score” value was 0.0385.
In the case of CTAACAAA, the “PBM E-score” value is reported as -0.184.
For TACACACA, the “PBM E-score” value was -0.125.
AACCAGTA was tested, and the “PBM E-score” value was 0.0606.
For AAGTCTTA, the “PBM E-score” value was -0.204.
For GTAACAAC, the “PBM E-score” value was -0.151.
With GGCGTGCA the “PBM E-score” value was 0.00491.
For GCTAACAA, the “PBM E-score” value was -0.121.
With CCATGCTA the “PBM E-score” value was -0.108.
ATCTGTCG was tested, and the “PBM E-score” value was 0.119.
For ATCCCTTA, the “PBM E-score” value was -0.0685.
In the case of TCTTCAAA, the “PBM E-score” value is reported as -0.0248.
In the case of GCATAGTA, the “PBM E-score” value is reported as 0.0519.
In the case of AAGACGTG, the “PBM E-score” value is reported as -0.0469.
AGATTGAT was tested, and the “PBM E-score” value was 0.0251.
With GCCGTCTA the “PBM E-score” value was 0.0671.
With CATGTTGA the “PBM E-score” value was 0.114.
In the case of CTCAGTTC, the “PBM E-score” value is reported as -0.187.
ATAATGAG was tested, and the “PBM E-score” value was -0.127.
For CACACCTG, the “PBM E-score” value was -0.176.
For GCCTACCA, the “PBM E-score” value was -0.102.
AGGCACGG was tested, and the “PBM E-score” value was 0.175.
For AATTCACC, the “PBM E-score” value was 0.128.
In the case of GATATCCC, the “PBM E-score” value is reported as 0.213.
For AAGATGGC, the “PBM E-score” value was -0.0125.
ATGATCGA was tested, and the “PBM E-score” value was -0.11.
For ACGGATCC, the “PBM E-score” value was 0.445.
For CAATGTGC, the “PBM E-score” value was -0.027.
In the case of GATATGCA, the “PBM E-score” value is reported as 0.092.
With AGGGTACC the “PBM E-score” value was -0.275.
For GCGACATA, the “PBM E-score” value was 0.0178.
In the case of AAGGAGCG, the “PBM E-score” value is reported as -0.135.
For GACGTTAC, the “PBM E-score” value was -0.178.
GTCTGGAA was tested, and the “PBM E-score” value was -0.284.
With CACTTACC the “PBM E-score” value was 0.126.
In the case of CGGGGAAA, the “PBM E-score” value is reported as 0.246.
In the case of TGCCATAA, the “PBM E-score” value is reported as 0.0031.
GAAGTAAC was tested, and the “PBM E-score” value was 0.125.
For CGATGTTA, the “PBM E-score” value was -0.0363.
For CCTGTGCG, the “PBM E-score” value was 0.0807.
In the case of CAACTTAA, the “PBM E-score” value is reported as -0.24.
For AGTAGAAA, the “PBM E-score” value was 0.00335.
TACCCTAA was tested, and the “PBM E-score” value was -0.214.
GTGCAACA was tested, and the “PBM E-score” value was -0.167.
With GTGTGATA the “PBM E-score” value was 0.0691.
AGGTTTAT was tested, and the “PBM E-score” value was 0.222.
CCCTCGCG was tested, and the “PBM E-score” value was 0.102.
TAGTGCGA was tested, and the “PBM E-score” value was 0.00869.
With TAGCTTGA the “PBM E-score” value was -0.186.
In the case of GACGAAGA, the “PBM E-score” value is reported as -0.0729.
ATAATTGA was tested, and the “PBM E-score” value was 0.0204.
With CGTGTAAC the “PBM E-score” value was -0.0863.
With ATCCCTCC the “PBM E-score” value was 0.0107.
With CGGTATCC the “PBM E-score” value was 0.248.
For TTACCCAA, the “PBM E-score” value was -0.285.
ACCACACT was tested, and the “PBM E-score” value was -0.0302.
With CTGAGGGC the “PBM E-score” value was -0.316.
In the case of ATAAATAT, the “PBM E-score” value is reported as 0.196.
In the case of CGGTCGCC, the “PBM E-score” value is reported as 0.224.
With CTACACCC the “PBM E-score” value was -0.0586.
In the case of GCGGCCAC, the “PBM E-score” value is reported as 0.123.
In the case of TCGCACCA, the “PBM E-score” value is reported as 0.0248.
With GAGATTAC the “PBM E-score” value was -0.0428.
In the case of CGCACGGA, the “PBM E-score” value is reported as 0.413.
AATTCACT was tested, and the “PBM E-score” value was -0.118.
AGCGCGCG was tested, and the “PBM E-score” value was 0.246.
AAACCTCG was tested, and the “PBM E-score” value was -0.0122.
With ACAGTCCT the “PBM E-score” value was -0.289.
For ATCCTCAC, the “PBM E-score” value was -0.0113.
ATTGAAGA was tested, and the “PBM E-score” value was -0.128.
With ATTATGCC the “PBM E-score” value was 0.07.
CAGACATG was tested, and the “PBM E-score” value was -0.0994.
For AGCTACCC, the “PBM E-score” value was -0.153.
CGACCGTC was tested, and the “PBM E-score” value was -0.207.
For ACAACCGA, the “PBM E-score” value was 0.136.
For ATAGGAGG, the “PBM E-score” value was -0.198.
For TGGAATAA, the “PBM E-score” value was -0.00691.
For AGTGAGAA, the “PBM E-score” value was 0.0591.
For GCTCGCTA, the “PBM E-score” value was -0.0721.
With AGTACCAT the “PBM E-score” value was -0.172.
With AACGGACA the “PBM E-score” value was 0.363.
